# Results reported in the BET-seq Pho4 binding data (Le et al. 2018).
# This is one part of the list. These are noisy estimates, calculated here from bound and input reads.
# Target: T1, Pho4 (S. cerevisiae) (UniProt P07270)
# T1 sequence: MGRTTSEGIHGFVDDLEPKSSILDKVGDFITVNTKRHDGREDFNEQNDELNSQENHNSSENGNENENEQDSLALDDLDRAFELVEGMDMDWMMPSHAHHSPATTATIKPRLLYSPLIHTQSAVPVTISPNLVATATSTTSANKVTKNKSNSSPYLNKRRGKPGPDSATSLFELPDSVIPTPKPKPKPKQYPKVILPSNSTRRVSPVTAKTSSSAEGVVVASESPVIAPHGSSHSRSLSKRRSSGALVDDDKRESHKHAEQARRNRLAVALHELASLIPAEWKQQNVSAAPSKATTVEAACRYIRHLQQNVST
# Experiment: relative binding free energy (BET-seq); higher = weaker binding
# Details: reference: library average
row,Sequence,relative binding free energy
1,GGCGACACGTGGGTTA,-0.05 kcal/mol
2,TAGAGCACGTGTGGAA,-0.14 kcal/mol
3,ATTGTCACGTGGTGCA,0.01 kcal/mol
4,GTGAACACGTGGATAG,0.01 kcal/mol
5,CAGTTCACGTGTGTGT,0.23 kcal/mol
6,TATATCACGTGGAGGT,0.14 kcal/mol
7,AGGTCCACGTGCTGTG,-0.01 kcal/mol
8,CGTGTCACGTGGCAGT,0.05 kcal/mol
9,TATGGCACGTGAGAAT,0.06 kcal/mol
10,CTTTGCACGTGGGTAG,-0.2 kcal/mol
11,GGTGGCACGTGGCGTG,-0.16 kcal/mol
12,TTAGGCACGTGAGTGG,0.09 kcal/mol
13,TTCACCACGTGGTGGG,-0.06 kcal/mol
14,TCGTACACGTGGTGGA,-0.05 kcal/mol
15,CAGCACACGTGTGGGT,0.22 kcal/mol
16,GTTCACACGTGGGATG,0.15 kcal/mol
17,GAAGACACGTGAGGGG,0.36 kcal/mol
18,ATGGTCACGTGTGGAG,0.2 kcal/mol
19,AAGTTCACGTGAGTGG,0.45 kcal/mol
20,ATATACACGTGGGAGA,0.02 kcal/mol
21,TGTCGCACGTGTTAGA,0 kcal/mol
22,TCGGACACGTGTTATT,0.08 kcal/mol
23,TGTCTCACGTGTGGGC,0.15 kcal/mol

row,Sequence,relative binding free energy
1,ACAGACACGTGTGTTG,0 kcal/mol
2,TTAGACACGTGATCGG,0.07 kcal/mol
3,TGCTGCACGTGAGTAG,0.29 kcal/mol
4,GTGTTCACGTGTTTCG,0.31 kcal/mol
5,CGTAACACGTGTTGGT,0.01 kcal/mol
6,GAAGGCACGTGATTCG,0.17 kcal/mol
7,TCTTCCACGTGGGGGG,-0.16 kcal/mol
8,TCTTGCACGTGGTTTT,0.01 kcal/mol
9,TGTCGCACGTGGGTAT,-0.19 kcal/mol
10,TGAATCACGTGGGGTC,0.03 kcal/mol
11,CTGGTCACGTGGAACG,0.39 kcal/mol
12,GGGGTCACGTGCGCGA,0 kcal/mol
13,GTTTGCACGTGTCTAT,-0.07 kcal/mol
14,CACTTCACGTGGGTTG,0.06 kcal/mol
15,TGTCGCACGTGGTGGA,-0.17 kcal/mol
16,TACGGCACGTGTAATG,0.11 kcal/mol
17,ATGATCACGTGTGGTA,0.05 kcal/mol
18,ATACTCACGTGATTGT,0.27 kcal/mol
19,TGGGCCACGTGCGCGT,-0.26 kcal/mol
20,GTGAGCACGTGAGGCA,0.16 kcal/mol
21,AACGTCACGTGGGCGG,-0.18 kcal/mol
22,TTGGTCACGTGTGTTG,0.13 kcal/mol
23,TTTGACACGTGTCGTA,0.02 kcal/mol

row,Sequence,relative binding free energy
1,GGTAGCACGTGTTGCA,-0.13 kcal/mol
2,TAAATCACGTGTGTAC,0.31 kcal/mol
3,CCCGTCACGTGGTGTG,-0.01 kcal/mol
4,ATTATCACGTGGTTGC,0.21 kcal/mol
5,ATGATCACGTGAAGGA,0.39 kcal/mol
6,GATTGCACGTGGATAG,0.04 kcal/mol
7,GGTTTCACGTGCGGAG,0.32 kcal/mol
8,TGTTTCACGTGCCGTT,0.24 kcal/mol
9,CGACGCACGTGGTTGG,-0.16 kcal/mol
10,TGGGCCACGTGATAGG,0.03 kcal/mol
11,GCTCTCACGTGGGGGG,0.13 kcal/mol
12,GAGGTCACGTGGGCAA,0.01 kcal/mol
13,TGGGCCACGTGTAGTT,-0.01 kcal/mol
14,AATCGCACGTGGTGTA,-0.18 kcal/mol
15,ATCAACACGTGTTGTT,-0.05 kcal/mol
16,TTTGACACGTGTGATA,0.14 kcal/mol
17,CTTCTCACGTGTGGAG,0.36 kcal/mol
18,TTGCTCACGTGGAGTT,0.26 kcal/mol
19,GTTCTCACGTGTGTGT,0.24 kcal/mol
20,TGAACCACGTGGTTTG,0.02 kcal/mol
21,TTAGTCACGTGACGGC,0.25 kcal/mol
22,ATAGGCACGTGGGACG,-0.2 kcal/mol
23,CTGTTCACGTGGGCCT,0.2 kcal/mol

row,Sequence,relative binding free energy
1,GGTGGCACGTGCAGTA,-0.19 kcal/mol
2,TCGTTCACGTGTGTTA,0.2 kcal/mol
3,GGGGCCACGTGGGGCC,-0.17 kcal/mol
4,AGTGACACGTGGGTTA,-0.19 kcal/mol
5,ATTAACACGTGTTGGA,0.09 kcal/mol
6,TGACACACGTGGTGGT,-0.23 kcal/mol
7,GTGCACACGTGGCTGG,0 kcal/mol
8,TGGGACACGTGATATT,0.16 kcal/mol
9,GGAATCACGTGGGGAT,0.16 kcal/mol
10,GGCTTCACGTGTGGGG,0.31 kcal/mol
11,GTTAGCACGTGAGACG,0.29 kcal/mol
12,AAAATCACGTGGTTGG,0.04 kcal/mol
13,CTAGGCACGTGTAAGG,-0.03 kcal/mol
14,GGGTTCACGTGAGGCT,0.59 kcal/mol
15,GAGGGCACGTGTGGCC,0.04 kcal/mol
16,GTGAACACGTGGTTTT,0.06 kcal/mol
17,CAGTGCACGTGGGTAT,-0.22 kcal/mol
18,GCTTGCACGTGCGAGG,0.03 kcal/mol
19,ACTAACACGTGTGGGG,-0.03 kcal/mol
20,GTTTGCACGTGATCTG,0.2 kcal/mol
21,GAATACACGTGGCGGT,0.1 kcal/mol
22,TGTAGCACGTGCATTG,-0.12 kcal/mol
23,TTTTACACGTGTCCGT,0.25 kcal/mol

row,Sequence,relative binding free energy
1,AGTTACACGTGCTGTG,0.07 kcal/mol
2,ATTGGCACGTGCATTG,-0.21 kcal/mol
3,TTTGTCACGTGATGGC,0.28 kcal/mol
4,GTTTCCACGTGGTGAG,0.13 kcal/mol
5,CGTTACACGTGAGGTT,0.24 kcal/mol
6,TCATACACGTGGATTT,0.19 kcal/mol
7,TTTCACACGTGGTATA,0.05 kcal/mol
8,TGTCTCACGTGGTTAC,0.24 kcal/mol
9,AATATCACGTGGAGTG,0.02 kcal/mol
10,GAGTGCACGTGTAGAG,0.07 kcal/mol
11,GTAGTCACGTGTTTTC,0.19 kcal/mol
12,AGTGGCACGTGGCGCG,-0.09 kcal/mol
13,TGCGGCACGTGCGTGT,-0.05 kcal/mol
14,TTAATCACGTGGATTT,0.2 kcal/mol
15,AGTGGCACGTGGGGAG,-0.18 kcal/mol
16,TGGCACACGTGGGGTC,-0.22 kcal/mol
17,TGTTGCACGTGGATGA,0.01 kcal/mol
18,TAGGGCACGTGGTTTA,-0.12 kcal/mol
19,GGCGGCACGTGGGTGT,-0.18 kcal/mol
20,TTGATCACGTGCAGGG,0.11 kcal/mol
21,TGATTCACGTGGGTGC,0.27 kcal/mol
22,GCAGCCACGTGGGGGG,-0.21 kcal/mol
23,TGTAGCACGTGAGGAA,0.18 kcal/mol
